Results from patent publication US6875775B2, “Triphenylalkene derivatives and their use as selective estrogen receptor modulators” (Hormos Medical Oy LTD, priority 1999, dated 2005).
Where “and” joins values, the source holds several entries; their conditions need not be identical. Equal values may be shown once. At least one read-out could not be matched to a standard name with certainty.

Test system: immature rat uterus
Test: 3 day uterotropic assay in immature female rats
Assay type: in vivo
Conditions: 3 days; for Estrogen antagonism (% inhibition of estradiol): Given with estradiol; for Uterotropic effect (% of estradiol): Given without estradiol
Method: Estimation of Estrogenicity and Antiestrogenicity in Vivo
The results have been shown in Table 3 both as per cent of estrogen stimulation (100%), and as inhibition of estrogen action (full inhibition is 100%). The values are given at two dose levels, low i.e. 3-5 mg/kg and high i.e. 10-50 mg/kg. Estrogenic activity can be estimated also after a 4 weeks' treatment of ovariectomized rats based on the uterine size.

Structure (SMILES) | Estrogen antagonism (% inhibition of estradiol) (dose 3-5 mg/kg) | Estrogen antagonism (% inhibition of estradiol) (dose 10-50 mg/kg) | Uterotropic effect (% of estradiol) (dose 3-5 mg/kg) | Uterotropic effect (% of estradiol) (dose 10-50 mg/kg)
OCCOCCOc1ccc(/C(=C(/CCCl)c2ccccc2)c2ccccc2)cc1 [No. 19, (Z)-2-{2-[4-(4-Chloro-1,2-diphenylbut-1-enyl)phenoxy]ethoxy}ethanol] | 10 % inhibition of estradiol | 44 % inhibition of estradiol | 13 % of estradiol | 37 % of estradiol
OCC(O)COc1ccc(/C(=C(/CCCl)c2ccccc2)c2ccccc2)cc1 (centres unmarked) [No. 20, (Z)-3-[4-(4-Chloro-1,2-diphenyl-but-1-enyl)phenoxy]propane-1,2-diol] |  | 20 % inhibition of estradiol and 39 % inhibition of estradiol | 33 % of estradiol and 48 % of estradiol | 62 % of estradiol and 72 % of estradiol
ClCC/C(=C(\c1ccccc1)c1ccc(OCCn2ccnc2)cc1)c1ccccc1 [No. 21, (Z)-1-{2-[4-(4-Chloro-1,2-diphenyl-but-1-enyl)phenoxy]ethyl}-1H-imidazole] | 10 % inhibition of estradiol | 20 % inhibition of estradiol | 26 % of estradiol | 39 % of estradiol
OCCSc1ccc(/C(=C(/CCCl)c2ccccc2)c2ccccc2)cc1 [No. 36, (Z)-2-[4-(4-Chloro-1,2-diphenyl-but-1-enyl)-phenylsulfanyl]ethanol] | 0 % inhibition of estradiol | 5 % inhibition of estradiol | 14 % of estradiol | 29 % of estradiol
ClCC/C(=C(\c1ccccc1)c1ccc(OCCN2CCCCC2)cc1)c1ccccc1Cl [No. 38, (Z)-1-(2-{4-[4-Chloro-2-(2-chlorophenyl)-1-phenylbut-1-enyl]phenoxy}-ethyl)piperidine] | 0 % inhibition of estradiol | 12 % inhibition of estradiol | 73 % of estradiol | 72 % of estradiol
Oc1cccc(/C(=C(\CCCl)c2ccccc2)c2ccc(OCCn3ccnc3)cc2)c1 [No. 39, (E)-3-{4-Chloro-1-[4-(2-imidazol-1-yl-ethoxy)phenyl]-2-phenyl-but-1-enyl}-phenol] | 50 % inhibition of estradiol | 70 % inhibition of estradiol | 9 % of estradiol | 19 % of estradiol
Oc1cccc(/C(=C(/CCCl)c2ccccc2)c2ccc(OCCn3ccnc3)cc2)c1 [No. 40, (Z)-3-{4-Chloro-1-[4-(2-imidazol-1-yl-ethoxy)phenyl]-2-phenyl-but-1-enyl}-phenol] | 45 % inhibition of estradiol | 54 % inhibition of estradiol | 13 % of estradiol | 9 % of estradiol
C#CCN(C)CCOc1ccc(/C(=C(/CCCl)c2ccccc2)c2ccccc2)cc1 [No. 44, (Z)-{2-[4-(4-Chloro-1,2-diphenylbut-1-enyl)phenoxy]ethyl}-methylprop-2-ynylamine] |  | 42 % inhibition of estradiol | 55 % of estradiol | 75 % of estradiol
CCC(O)(CC)COc1ccc(/C(=C(/CCCl)c2ccccc2)c2ccccc2)cc1 [No. 45, (Z)-3-[4-(4-Chloro-1,2-diphenylbut-1-enyl)phenoxymethyl]pentan-3-ol] | 30 % inhibition of estradiol | 30 % inhibition of estradiol | 43 % of estradiol | 62 % of estradiol
CCC(CO)Oc1ccc(/C(=C(/CCCl)c2ccccc2)c2ccccc2)cc1 (centres unmarked) [No. 46, (Z)-2-[4-(4-Chloro-1,2-diphenylbut-1-enyl)phenoxy]butan-1-ol] | 0 % inhibition of estradiol | 0 % inhibition of estradiol | 77 % of estradiol | 100 % of estradiol
